In general, % Inhibition refers to the relative decrease from the control value, in per cent.

Among all 150,000 compounds or so, about 540 (0.36%) showed an effect of 50% or more. The list shows a part of the results.

For this assay, the system named is Plasmodium falciparum. The assay can be described thus: Primary screen in NF54 nanoGlo assay, in single point, at 2uM, 72h; a lower Z score goes with more inhibition. Particulars: timepoint 72 hour. It counts as functional, Erythrocyte.
Turning to `Cc1ccc(CN(C)C(=O)N[C@H]2CCCc3ccc(C)cc32)nc1`, the “% Inhibition” value is -3% and the Z score came to 0.37.
On to `C[C@H](NC(=O)C1CCc2nnn(C)c2C1)C1CCCC1` (some centres undefined), for which the “% Inhibition” value is reported as -7% and the Z score is listed as 0.78.
For `COc1cc(-c2noc(CNC3CCCCC3OC)n2)ccc1C` (centres undefined), the “% Inhibition” value is given as -9% and the Z score stood at 1.52.
As for `O=c1c2c(ncn1Cc1ccc(F)cc1)c1ccccc1n2Cc1cccc(Cl)c1`, the “% Inhibition” value is listed as -1% and the Z score was found to be 0.14.
On to `CCC(CC)n1ccc(C(=O)NC2(C(=O)OC)CCCC2)n1`, for which the “% Inhibition” value is reported as -6% and the Z score stood at 0.96.
For `O=S(=O)(C1CCC1)N1CCO[C@H](C(F)(F)F)CC1`, in that order: 1% and -0.08.
The like results for `COc1ccc(-c2nn3c(Cc4ccccn4)nnc3s2)cc1OC` were, in that order, 36% and -4.04.
For `Nc1nnc(CCOc2ccccc2)o1`, in that order: 10% and -1.36.
As for `C[C@@H](C(=O)Nc1ccc(-c2nnc3n2CCC3)cc1)n1cccn1`, the “% Inhibition” value was -13% and the Z score was 2.28.
For `CN1CCN(C(=O)c2nc3ccccc3s2)CC1=O`, in that order: 9% and -1.17.
For `O=C(Nc1ccccc1)c1ccc(NC(=O)N2CCc3ccccc3[C@@H]2CO)cc1`, the “% Inhibition” value is -5% and the Z score came out at 0.87.
On to `O=C(c1ccc(C(F)F)c(F)c1)N1CCO[C@H](c2nnn[nH]2)C1`, for which the “% Inhibition” value was -15% and the Z score was 1.73.
`CCOc1ccccc1C(=O)N1CCC2(CC1)C[C@@H](C(=O)NCCCOC)N(C)C2=O`: the “% Inhibition” value was -9% and the Z score was determined as 1.07.
For the molecule `C1CCCN(Cc2nc(C3CC3)no2)CCC1`, the “% Inhibition” value is -6% and the Z score is 0.91.
The like results for `CC1CC1C(=O)Nc1nc(C2CC2)cs1` (centres undefined) were, in that order, -2% and 0.27.
For `CN(C)C(=O)N[C@@H](Cc1ccccc1)C(=O)N1CCCCC1`, in that order: 8% and -1.01.
For the molecule `COc1ccc(N[C@H]2CCCN(C(=O)c3oc(C)cc3C)C2)cc1OC`, the “% Inhibition” value is on record as -11% and the Z score was determined as 1.65.
On to `CN(Cc1cn(C)nc1C(F)(F)F)C(=O)N[C@H]1CCCC12CCCCC2`, for which the “% Inhibition” value is 7% and the Z score was -1.
For `CCc1noc(C)c1C(=O)NC(c1ccccc1)c1ccccc1`, the “% Inhibition” value is on record as -13% and the Z score is reported as 1.22.
The like results for `Cc1cccc(O[C@@H]2CNCCOC2)n1` were, in that order, -10% and 1.45.
The like results for `C[C@@H](C1CC1)N(C(=O)Cn1cc(C(N)=O)nc1C1CC1)C1CC1` were, in that order, -8% and 1.53.
As for `CCOC1(OCC)[C@@H](c2ccc(OC)cc2)C(C#N)(C#N)C1(OCC)OCC`, the “% Inhibition” value is reported as -29% and the Z score is 3.41.
For `COc1ccc(-c2cn(C3CCN(C(C)=O)CC3)nn2)cc1`, in that order: -20% and 2.73.
On to `Cc1cnn(C(C)C(C)Nc2ncnc3c2CCC3)c1` (centres undefined), for which the “% Inhibition” value stood at 4% and the Z score is given as -0.48.
For the molecule `CN1CCN(c2nc(CS(=O)(=O)c3ccccc3)cs2)CC1`, the “% Inhibition” value is recorded as -2% and the Z score worked out at 0.22.
With `O=C(NC(c1ccccc1)c1ccccc1)N1CC(n2nccn2)C1`, the “% Inhibition” value was -21% and the Z score stood at 2.38.
For `CN1CCN(C2Cc3ccccc3[S+]([O-])c3ccc(Cl)cc32)CC1` (centres undefined), in that order: 3% and -0.39.
Take `CC1CC(C)CN(CC(O)COCC2=CCC3CC2C3(C)C)C1` (centres undefined): the “% Inhibition” value is 1% and the Z score was -0.15.
The like results for `Cn1cc(S(=O)(=O)NC[C@H]2CCNCC2(F)F)cn1` were, in that order, 20% and -2.53.
For `Cc1nccc(OC2CCN(C(=O)c3cc4n(n3)CCCO4)CC2)n1`, in that order: -4% and 0.7.
For `CN=C(N[C@@H](C)c1ccccn1)c1ccco1`, in that order: -10% and 1.25.
Turning to `COc1ccc(N2CCN(C(=O)[C@@H]3CCC(=O)N3S(=O)(=O)c3ccccc3)CC2)cc1`, the “% Inhibition” value is recorded as -1% and the Z score is reported as 0.17.
The like results for `COc1ccc(O)cc1-c1nc2c([nH]1)c(C)nn2Cc1ccccc1Cl` were, in that order, -2% and 0.21.
Take `O=C(NC1CC1)[C@@H]1CCCN1c1ccc(OC(F)F)cn1`: the “% Inhibition” value was found to be 0% and the Z score is listed as -0.01.
For `CN(Cc1n[nH]c2c1CCC2)C(=O)CN1CCOCC1`, the “% Inhibition” value worked out at 1% and the Z score is recorded as -0.28.
The like results for `Cc1cc(-c2noc(CNC(=O)[C@H]3CCS(=O)(=O)C3)n2)no1` were, in that order, -12% and 2.41.
The like results for `O=C(CC(C1CCC1)C1CCC1)NCc1c(O)cccc1O` were, in that order, -8% and 0.95.
The like results for `CC(C)n1cc(NC(=O)CCc2ccnn2C)cn1` were, in that order, -6% and 1.04.
As to `O=C(NCCN1CCCCC1)[C@@H]1CCCO1`, the “% Inhibition” value was 12% and the Z score was -1.75.
For the molecule `CN1C[C@H](NC(=O)N2CCC(F)(F)CC2)c2sccc2S1(=O)=O`, the “% Inhibition” value was 0% and the Z score is 0.03.
The like results for `Cn1nc(C(=O)N2CCC(n3nc(C(F)(F)F)n(C)c3=O)CC2)ccc1=O` were, in that order, 0% and -0.03.
In the case of `COc1ccc(NC(C)=O)cc1NC(=O)N1CCC(=O)CC12CCC2`, the “% Inhibition” value was determined as 4% and the Z score is -0.51.
For `O=C(NCCc1ncccn1)OCC(F)(F)F`, in that order: 5% and -0.72.
For the molecule `Cc1n[nH]cc1CNCC1(N2CCOCC2)CCCCC1`, the “% Inhibition” value was -4% and the Z score was determined as 0.86.
For `COc1ccccc1CNC(=O)c1cnn2ccc(NC(C)=O)cc12`, in that order: -9% and 1.34.
For `O=C(NCC1CCN(c2ccccn2)CC1)Nc1cccs1`, in that order: -14% and 2.11.
For the molecule `Cc1nc(N2CCO[C@H](C3CC3)C2)ccc1Cl`, the “% Inhibition” value was -2% and the Z score is 0.35.
For `CN(CC(=O)Nc1ccc(F)cc1)C(=O)c1ccc2c(c1)CCCC2`, in that order: -4% and 0.82.
The like results for `Fc1cc(-c2ccc(Cn3ccnc3)cc2)c2ncccc2c1` were, in that order, 3% and -0.6.
For `CC1OCCC1NS(=O)(=O)c1cncc(F)c1` (centres undefined), in that order: -1% and 0.09.
`CCCCCN(C)C(=O)c1cc(-c2ccc3ccccc3c2)on1`: the “% Inhibition” value is on record as -9% and the Z score turned out to be 1.47.
Take `CCn1c(C(C)Oc2ccccc2F)nnc1N1CCCC(S(C)(=O)=O)C1` (centres undefined): the “% Inhibition” value is recorded as -3% and the Z score is listed as 0.52.
The like results for `CCOc1ccccc1Nc1nc(O)nnc1C` were, in that order, -11% and 1.02.
Consider `COC[C@@H](c1ccnn1C)n1cnc2ccncc2c1=O`, for which the “% Inhibition” value is -10% and the Z score was 1.59.
For `COc1ccc(CC(=O)Nc2c(C)n[nH]c2-n2cnnc2)cc1`, in that order: -11% and 1.87.
As to `CC1(C)CN(C(=O)c2ccc3c(c2)OCC(=O)N3)CC[C@H]1C(F)(F)F`, the “% Inhibition” value is 6% and the Z score is listed as -0.81.
On to `Cc1cc([C@H]2C[C@H]3CC[C@@H](C2)N3C(=O)Cn2ccccc2=O)ccc1F`, for which the “% Inhibition” value was -1% and the Z score was determined as 0.16.

Source of the values: ChEMBL document CHEMBL4888484, “Replenishing the malaria drug discovery pipeline: Screening and hit evaluation of the MMV Hit Generation Library 1 (HGL1) against asexual blood stage Plasmodium falciparum ,using a nano luciferase reporter read-out” (2022).
